The results in this text go back to the supplement of paper PMC9446081.

The structures appear in SMILES notation. About 220 (0.56%) of roughly 39,000 compounds showed activity. Some of the results follow.
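Further: static incubation at 37 °C against the wild-type strain, values averaged over two biological replicates.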

This test deals with Escherichia coli K-12 BW25113. Description: relative growth (OD600 normalised to plate interquartile mean) (fraction); higher = less growth inhibition, active = 0.2 or less. Conditions: 50 µM; LB; incubation time: overnight (16-24 h).
Regarding `Cc1ccnc2ccccc12`, the relative growth is inactive: 1.03. The value for `CCS(=O)(=O)Nc1ccc2c(c1)C(=O)N(C)C[C@@H](OC)[C@H](C)CN(Cc1ccccn1)[C@@H](C)CO2` was inactive: 0.992; that for `C[C@@H]1CCCCO[C@@H](CN(C)C(=O)Cc2ccccc2)[C@@H](C)CN([C@H](C)CO)C(=O)c2cc(NC(=O)Cc3ccccc3)ccc2O1` was inactive: 0.999. For the compound `C[C@@H]1CN([C@H](C)CO)C(=O)Cc2cc(NC(=O)Cn3cnnn3)ccc2O[C@@H]1CN(C)S(=O)(=O)c1cccs1`, the relative growth is inactive: 1. Take `C[C@@H]1CCCCO[C@@H](CN(C)S(=O)(=O)c2cccs2)[C@H](C)CN([C@H](C)CO)C(=O)c2cc(NC(=O)CCC(F)(F)F)ccc2O1`: the relative growth is inactive: 0.977. To `C[C@H]1CN([C@@H](C)CO)C(=O)Cc2cc(NC(=O)Nc3cccc4ccccc34)ccc2O[C@@H]1CN(C)C(=O)Nc1ccc2c(c1)OCO2` belongs inactive: 0.995; to `Cl.O=C(O)c1cn(-c2ccc(F)cc2)c2cc(N3CCNCC3)c(F)cc2c1=O`, active: 0.0456; to `Cc1cc(=O)n2ncnc2[nH]1`, inactive: 0.999. To `CSCC[C@H](N)C(=O)O` belongs inactive: 1.01. The value for `C[C@@H]1CN([C@@H](C)CO)S(=O)(=O)c2ccc(C#CC3(O)CCCC3)cc2O[C@@H]1CN(C)C(=O)c1ccccc1` was inactive: 1; that for `C[C@@H]1CN([C@@H](C)CO)S(=O)(=O)c2ccc(C#CC3CCCCC3)cc2O[C@H]1CN(C)C(=O)Cc1ccncc1` was inactive: 0.98; that for `Cc1noc(C)c1S(=O)(=O)Nc1ccc2c(c1)CC(=O)N([C@H](C)CO)C[C@H](C)[C@@H](CN(C)Cc1ccc(C(=O)O)cc1)O2` was inactive: 0.98. For `COc1ccc(S(=O)(=O)Nc2cccc3c2O[C@H](CN(C)S(=O)(=O)c2ccc(F)cc2)[C@H](C)CN([C@@H](C)CO)C3=O)cc1`, the relative growth was inactive: 1.02.

For the compound `O=C(NC1CC1)[C@@H]1c2ccccc2C(=O)N(Cc2cc(C(F)(F)F)cc(C(F)(F)F)c2)[C@H]1c1ccc(CO)cc1`, the relative growth was inactive: 0.933. The value for `COc1ccc(NC(=O)N(C)C[C@@H]2Oc3c(NC(=O)c4ccc(-c5nccs5)cc4)cccc3C(=O)N([C@@H](C)CO)C[C@@H]2C)cc1` was inactive: 1.01. For the compound `Cc1noc(C)c1NC(=O)Nc1cccc2c1O[C@@H](CN(C)S(=O)(=O)c1cn(C)cn1)[C@H](C)CN([C@@H](C)CO)C2=O`, the relative growth was inactive: 1. On to `COc1ccc(S(=O)(=O)N(C)C[C@@H]2Oc3cc(-c4ccccc4OC)ccc3S(=O)(=O)N([C@@H](C)CO)C[C@@H]2C)cc1`, for which the relative growth was inactive: 1.05. The value for `C[C@H](CO)N1C[C@H](C)[C@H](CN(C)Cc2ccncc2)Oc2c(NC(=O)c3cnccn3)cccc2C1=O` was inactive: 0.978; that for `C[C@H]1CN([C@@H](C)CO)C(=O)Cc2cc(NC(=O)CCCCCC(=O)Nc3ccccc3N)ccc2O[C@H]1CN(C)C(=O)Nc1ccc(C(F)(F)F)cc1` was inactive: 0.958; that for `CCOCC(O)COc1ccc(NC(=O)CC[S+](C)C)cc1.Cc1ccc(S(=O)(=O)[O-])cc1` (stereo not drawn) was inactive: 1.09. The value for `C[C@@H]1CN([C@@H](C)CO)C(=O)c2cc(NC(=O)Nc3ccc4c(c3)OCO4)ccc2O[C@@H](C)CCCCO[C@H]1CN(C)C(=O)Cc1ccccc1` was inactive: 1.03. To `CN(C)CC(=O)N[C@@H]1C=C[C@H](CC(=O)NCCN2CCCCC2)O[C@H]1CO` belongs inactive: 0.989.

As for `CCOC(=O)CCCCCC(=O)Nc1ccc2c(c1)C(=O)N([C@@H](C)CO)C[C@H](C)[C@H](CN(C)C(=O)Nc1ccc(C(F)(F)F)cc1)OCCCC[C@H](C)O2`, the relative growth is inactive: 1.05. Turning to `CN1CCCN(c2ccccc2CN)CC1`, the relative growth was inactive: 1. With `CC(C)NC(=O)N(C)C[C@@H]1Oc2cc(C#Cc3ccccn3)ccc2S(=O)(=O)N([C@H](C)CO)C[C@H]1C`, the relative growth was inactive: 0.96. As to `COc1cc2c(cc1OC)CN(C(=O)[C@H]1[C@@H]3C(=O)O[C@@H](c4ccccc4)[C@@H](c4ccccc4)N3[C@@H](c3ccc(OCCO)cc3)[C@]13C(=O)Nc1ccc(C#CC4(O)CCCCCC4)cc13)CC2`, the relative growth is inactive: 1.07. To `Cc1noc(C)c1NC(=O)Nc1ccc2c(c1)CC(=O)N([C@@H](C)CO)C[C@H](C)[C@H](CN(C)C(=O)NC(C)C)O2` belongs inactive: 0.935. To `C[C@H](CO)N1C[C@H](C)[C@H](CN(C)S(=O)(=O)c2ccc(Cl)cc2)Oc2c(NC(=O)C3CCOCC3)cccc2C1=O` belongs inactive: 1.01; to `CC1(C)CC(NC(=O)c2ccc(Cl)c(S(=O)(=O)N(Cc3ccccc3)c3ccccc3)c2)CC(C)(C)N1`, inactive: 0.991.

For `COc1cc(NC(=O)CCN2CCC(OC(=O)Nc3ccccc3-c3ccccc3)CC2)c(Cl)cc1CNC[C@H](O)c1ccc(O)c2nc(O)ccc12`, the relative growth is inactive: 1. The value for `C[C@@H]1CN([C@H](C)CO)C(=O)Cc2cc(NC(=O)Cc3cn(C)c4ccccc34)ccc2O[C@@H]1CN(C)Cc1ccc(-c2ccccc2)cc1` was inactive: 1. The value for `C[C@@H]1CN([C@@H](C)CO)C(=O)c2cc(NC(=O)C3CCCCC3)ccc2O[C@@H](C)CCCCO[C@@H]1CN(C)Cc1ccc(C(F)(F)F)cc1` was inactive: 1.03; that for `C[C@@H]1CCCCO[C@H](CN(C)C(=O)Nc2cccc3ccccc23)[C@@H](C)CN([C@@H](C)CO)C(=O)c2cc(NC(=O)CCC(F)(F)F)ccc2O1` was inactive: 1.02. The value for `COc1ccc(NC(=O)Nc2ccc3c(c2)C(=O)N([C@H](C)CO)C[C@@H](C)[C@H](CN(C)Cc2ccc(C(=O)O)cc2)OCCCC[C@@H](C)O3)cc1` was inactive: 1.01; that for `C[C@@H]1CCCCO[C@H](CN(C)Cc2ccc(C(=O)O)cc2)[C@H](C)CN([C@@H](C)CO)C(=O)c2cc(NC(=O)Nc3ccc(F)cc3)ccc2O1` was inactive: 0.975. Regarding `C[C@@H]1CCCCO[C@@H](CN(C)Cc2ccc(C(=O)Nc3ccccc3N)cc2)[C@@H](C)CN([C@H](C)CO)C(=O)c2cc(NS(=O)(=O)c3ccc(Cl)cc3)ccc2O1`, the relative growth is inactive: 0.996. To `C[C@@H]1CN([C@@H](C)CO)C(=O)c2cc(C#CCN(C)C)cnc2O[C@H]1CN(C)S(=O)(=O)c1cn(C)cn1` belongs inactive: 0.994. To `Cc1noc(C)c1S(=O)(=O)N(C)C[C@H]1Oc2ccc(NS(=O)(=O)c3cccs3)cc2C(=O)N([C@@H](C)CO)C[C@H]1C` belongs inactive: 1.01. On to `C[C@H](CO)N1C[C@H](C)[C@@H](CN(C)C(=O)c2ccc3c(c2)OCO3)Oc2cc(-c3cncnc3)ccc2S1(=O)=O`, for which the relative growth is inactive: 0.993. The value for `NCCS(=O)(=O)N1CCN(c2ccc(F)cc2)CC1` was inactive: 0.949. The value for `C[C@H](CO)N1C[C@H](C)[C@@H](CN(C)C(=O)NC2CCCCC2)Oc2ccc(NC(=O)c3ccncc3)cc2CC1=O` was inactive: 0.964. To `NC(=O)c1cc2ccccc2oc1=O` belongs inactive: 0.971; to `O=C(O)C1(Cn2ccnc2)CC1`, inactive: 1.01; to `C[C@H]1CCCCO[C@H](CN(C)Cc2ccccc2)[C@@H](C)CN([C@@H](C)CO)C(=O)c2cc(NC(=O)CCC(F)(F)F)ccc2O1`, inactive: 0.981. In the case of `C[C@H](C(=O)N(C)C[C@@H]1OCc2ccccc2-c2c(n(C)c3ccccc23)C(=O)N([C@H](C)CO)C[C@@H]1C)c1ccccc1`, the relative growth was inactive: 0.998. To `Cc1ccc(S(=O)(=O)N(C)C[C@@H]2OCCCC[C@@H](C)Oc3ccc(NC(=O)Nc4cccc5ccccc45)cc3C(=O)N([C@@H](C)CO)C[C@@H]2C)cc1` belongs inactive: 1.04; to `C[C@@H]1CCCCO[C@H](CN(C)C(=O)Nc2cccc3ccccc23)[C@H](C)CN([C@@H](C)CO)C(=O)c2cc(NS(=O)(=O)c3ccc(Cl)cc3)ccc2O1`, inactive: 1.01.

Turning to `CSc1ccc2cc(CN(C[C@H]3CCCO3)C(=O)c3ccco3)c(N(C)Cc3csc(C)n3)nc2c1`, the relative growth is inactive: 1.03.

As for `C[C@@H]1CCCCO[C@H](CN(C)Cc2ccc(Cl)c(Cl)c2)[C@H](C)CN([C@@H](C)CO)C(=O)c2cc(NC(=O)Nc3ccccc3)ccc2O1`, the relative growth is inactive: 1. To `COc1ccc(C(=O)Nc2ccc(CN3C(=O)[C@@]4(O[C@@H](CC(=O)N(CCO)Cc5ccccc5)[C@H]([Si](C)(C)c5ccc(OC)cc5)[C@H]4C)c4ccccc43)cc2)cc1` belongs inactive: 1.03; to `C[C@H](CO)N1C[C@H](C)[C@@H](CN(C)Cc2ccc(Cl)c(Cl)c2)Oc2ccc(NS(=O)(=O)c3ccccc3)cc2CC1=O`, inactive: 1.02; to `COc1ccc(CN(C)C[C@H]2OCCCC[C@@H](C)Oc3ccc(NS(=O)(=O)c4ccc(Cl)cc4)cc3C(=O)N([C@@H](C)CO)C[C@@H]2C)cc1`, inactive: 1. The value for `Cc1noc(C)c1NC(=O)N(C)C[C@@H]1Oc2ccc(NS(C)(=O)=O)cc2CC(=O)N([C@H](C)CO)C[C@H]1C` was inactive: 0.997; that for `C[C@@H]1CCCCO[C@@H](CN(C)Cc2ccccc2)[C@H](C)CN([C@H](C)CO)C(=O)c2cc(NC(=O)Nc3ccc(F)cc3)ccc2O1` was inactive: 0.992; that for `C[C@@H]1CN([C@@H](C)CO)C(=O)c2cc(NC(=O)NC3CCCCC3)ccc2O[C@@H](C)CCCCO[C@H]1CN(C)Cc1ccc(C(F)(F)F)cc1` was inactive: 1.02. The value for `COc1ccc(NC(=O)Nc2ccc3c(c2)C(=O)N([C@@H](C)CO)C[C@@H](C)[C@@H](CN(C)C(=O)Nc2ccc(F)cc2)OCCCC[C@@H](C)O3)cc1` was inactive: 1.01; that for `COc1ccc(S(=O)(=O)N(C)C[C@@H]2Oc3ccc(NC(=O)Nc4c(C)noc4C)cc3C(=O)N([C@@H](C)CO)C[C@@H]2C)cc1` was inactive: 1.01. Take `C[C@@H]1CN([C@@H](C)CO)C(=O)c2cc(C#CCN(C)C)cnc2O[C@@H]1CN(C)Cc1ccc(C(=O)O)cc1`: the relative growth is inactive: 0.986.
